Reference: the supplement of paper PMC12217912
The other results are listed elsewhere or left out. The full chains were built here from the parent and the listed change. Inactive controls read about 0.05.

B1: TEV protease; numbered along this chain (parent)
chain: MGESLFKGPRDYNPISSSICHLTNESDGHTTSLYGIGFGPFIITNKHLFRRNNGTLVVQSLHGVFKVKDTTTLQQHLVDGRDMIIIRMPKDFPPFPQKLKFREPQREERICLVTTNFQTKSMSSMVSDTSCTFPSGDGIFWKHWIQTKDGQCGSPLVSTRDGFIVGIHSASNFTNTNNYFTSVPKNFMELLTNQEAQQWVSGWRLNADSVLWGGHKVFMVKPEEPFQPVKEATQL

Variants of: B1
Assay: raw area under fraction-flipped curve 0-4 h after induction (AUC4h, not background-subtracted), DNA-recorder readout of cleavage of the substrate (dimensionless); higher = more cleavage of the substrate by the protease variant
Conditions: temperature: 34 °C; time window: 0-4 h after rhamnose induction
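Further: Bxb1 expression induced with 0.2% (w/v) L-rhamnose at OD600 near 0.5, cultures sampled hourly, flipped fraction per protease–substrate barcode pair counted by paired-end Illumina sequencing.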

Variant	area with substrate ENLYFES	area with substrate ENLYFFS	area with substrate ENLYFGS	area with substrate ENLYFHS	area with substrate ENLYFIS	area with substrate ENLYFLS	area with substrate ENLYFMS	area with substrate ENLYFNS	area with substrate ENLYFPS	area with substrate ENLYFTS	area with substrate ENLYFWS	area with substrate ENLYFYS	area with substrate ENLYFRS	area with substrate ENLYFSS	area with substrate ENLYFVS	area with substrate ENLYFKS
V67M	0.0637	0.035	0.0326	0.0708	0.058	0.0541	0.0782	0.0612	0.0511	0.0516	0.0562	0.0567	–	–	–	–
D69I	0.0564	0.0671	0.0545	–	0.0379	–	0.0565	–	0.0499	0.0517	0.075	–	0.0562	0.0577	0.0414	–
F95G	0.0602	0.0586	–	0.0687	0.0461	–	0.0364	–	0.0849	–	0.0309	0.0283	0.0412	–	–	–
R102Q	0.0497	0.0501	–	–	0.0465	–	0.0443	0.0502	0.0473	0.0334	–	0.0489	–	0.035	–	0.0097
S124E	0.0508	0.0635	–	0.0525	0.0554	–	–	–	–	–	0.0538	0.0637	0.203	0.065	–	0.0653
W141G	0.0484	0.0607	–	0.0561	0.0534	–	0.0554	0.0687	0.0595	0.0524	0.0496	0.0454	–	0.0514	–	0.0395
N175T	0.0449	0.0752	–	0.0702	0.0561	–	0.0584	0.0618	0.0697	–	0.0613	–	0.0586	–	0.0526	0.0582
Y179L	0.0609	0.0648	–	0.0551	0.0534	0.0513	0.0706	0.058	–	0.0577	–	0.0557	–	0.0563	–	0.0471
F180P	0.0503	–	0.0464	–	0.0437	0.0577	0.059	0.0566	–	–	–	–	0.0544	–	0.0467	0.0504
S182A	0.0636	0.0598	–	–	0.055	–	0.0694	–	0.0567	–	–	–	–	–	–	0.0601
N193I	0.0603	0.0688	–	–	0.0631	–	0.0674	0.075	0.0573	0.0658	–	–	0.0403	–	0.0511	–
G202L	0.0043	0.0798	–	–	0.0599	–	0.0658	0.0664	0.0631	–	0.0599	–	–	–	0.0606	0.0706
L211V	0.071	0.0592	0.0339	–	–	–	0.0701	0.0507	0.0629	–	0.0591	0.0536	0.0624	–	–	–
F226A	0.0734	0.0991	–	–	0.0514	–	0.0548	0.0651	0.0653	0.0458	–	0.0441	–	–	0.0642	0.0628
G8R	–	0.0624	–	–	–	–	0.0656	0.0604	–	0.0714	–	–	0.0826	–	–	–
D79I	–	0.0976	–	–	0.0504	–	–	–	0.0552	–	0.0671	–	0.0746	0.0425	–	–
G80R	–	0.0643	0.0625	0.057	0.0548	0.0577	0.0612	–	–	0.0558	0.0449	–	0.0469	0.0498	–	0.0486
C131S	–	0.0499	–	–	–	–	0.0667	0.0766	–	–	–	0.0551	0.0588	–	–	–
K148F	–	0.0883	–	–	0.0564	–	0.0705	0.0696	0.0689	0.0633	0.0648	–	–	–	–	0.0699
S154P	–	0.0628	–	0.0444	0.0622	–	0.0556	0.055	–	0.0585	0.0615	–	0.0642	0.0678	0.0651	–
Q194P	–	0.0618	–	0.0588	0.0626	0.073	0.0545	–	0.0595	0.0513	0.0394	0.0535	0.0576	–	0.0611	0.0603
G214A	–	0.0728	–	–	0.053	–	0.0617	0.0639	0.0585	0.0554	0.0524	0.0708	–	0.0461	–	0.0547
G136M	–	–	0.0627	–	0.0668	–	0.0755	–	0.0576	0.0489	0.0517	0.0738	–	0.0615	–	–
K100S	–	–	–	0.0599	0.0581	–	0.119	0.0614	0.0708	0.0809	–	0.0606	0.0671	–	0.0281	0.0369
C131T	–	–	–	0.0558	0.0584	–	0.0854	0.071	–	–	–	–	0.0495	0.0679	–	–
K66I	–	–	–	–	0.0558	–	0.0683	–	0.0611	0.0603	0.0684	0.0539	–	–	0.0627	0.0782
